From the supplement of paper PMC9446081
Among all 39,000 compounds or so, about 220 (0.56%) showed activity. The list shows a part of the results.

Test system: Escherichia coli K-12 BW25113
Experiment: relative growth (OD600 normalised to plate interquartile mean) (fraction); higher = less growth inhibition, active = 0.2 or less
Conditions: 50 µM; LB; incubation time: overnight (16-24 h)
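Also: static incubation at 37 °C against the wild-type strain, values averaged over two biological replicates.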

Compound | relative growth
C[C@H]1CN([C@@H](C)CO)S(=O)(=O)c2ccc(Br)cc2O[C@H]1CN(C)C(=O)Cc1ccccn1 | inactive: 0.965
O=C(CCCCCCCC(=O)NCCO)NCCO | inactive: 0.892
C[C@@H]1CCCCO[C@H](CN(C)CC2CC2)[C@@H](C)CN([C@H](C)CO)C(=O)c2cc(NC(=O)Cc3ccccc3)ccc2O1 | inactive: 0.985
C[C@@H]1CN([C@@H](C)CO)C(=O)Cc2cc(NS(=O)(=O)c3ccc(Cl)cc3)ccc2O[C@@H]1CN(C)S(C)(=O)=O | inactive: 1.02
C[C@@H]1CN([C@@H](C)CO)C(=O)c2cc(NC(=O)C3CC3)ccc2O[C@H]1CN(C)Cc1ccc(-c2ccccc2)cc1 | inactive: 1.02
C[C@@H]1CN([C@H](C)CO)C(=O)Cc2cc(NC(=O)c3ccncc3)ccc2O[C@H]1CN(C)S(=O)(=O)c1cccs1 | inactive: 0.971
COc1ccccc1S(=O)(=O)N(C)C[C@@H]1Oc2c(NC(=O)Nc3cccc4ccccc34)cccc2C(=O)N([C@@H](C)CO)C[C@H]1C | inactive: 0.96
COc1ccc(S(=O)(=O)Nc2ccc3c(c2)C(=O)N([C@@H](C)CO)C[C@H](C)[C@@H](CN(C)CC2CCCCC2)OCCCC[C@H](C)O3)cc1 | inactive: 0.986
Cc1noc(C)c1NC(=O)Nc1ccc2c(c1)C(=O)N([C@@H](C)CO)C[C@@H](C)[C@@H](CN(C)S(=O)(=O)c1ccc(F)cc1)OCCCC[C@@H](C)O2 | inactive: 1
CN(C)CCCNC(=O)C[C@@H]1CC[C@H]2[C@H](COc3ccc(NC(=O)c4ccccc4F)cc3C(=O)N2C)O1 | inactive: 0.979
C[C@H](CO)N1C[C@H](C)[C@H](CN(C)S(=O)(=O)c2ccc(Cl)cc2)OCCCC[C@H](C)Oc2ccc(NC(=O)Nc3ccc4c(c3)OCO4)cc2C1=O | inactive: 1
Cc1ccc(S(=O)(=O)Nc2ccc3c(c2)C(=O)N([C@@H](C)CO)C[C@H](C)[C@H](CN(C)Cc2ccc4c(c2)OCO4)OCCCC[C@H](C)O3)cc1 | inactive: 1
CC(=O)Nc1ccc(S(=O)(=O)NC(=O)Cn2nnc(COc3ccc(C)cc3)c2-c2ccccc2)cc1 | inactive: 0.974
C[C@@H]1CN([C@@H](C)CO)C(=O)c2cccc(NC(=O)Nc3ccc(F)cc3)c2O[C@@H]1CN(C)CC1CCCCC1 | inactive: 0.964
O=C(O)[C@@H]1CC(=O)N(Cc2cccnc2)C1 | inactive: 0.973
CC(=O)N(C)C[C@@H]1Oc2ncc(C#C[C@@H](C)O)cc2C(=O)N([C@@H](C)CO)C[C@H]1C | inactive: 1.01
C[C@@H]1CN([C@@H](C)CO)C(=O)c2cc(NS(=O)(=O)c3ccc(F)cc3)ccc2O[C@@H](C)CCCCO[C@H]1CN(C)C(=O)Nc1ccc(F)cc1 | inactive: 1.02
C[N+](C)(C)CCCCNC(=O)[C@@H]1C[C@@H]2C(=O)N[C@@H](CCCC[N+](C)(C)C)C(=O)N2[C@@H]1c1cccc(OCCO)c1 | inactive: 0.975

Compound | relative growth
CNC(=O)C[C@@H]1CC[C@H]2[C@@H](COC[C@H](O)CN2C(=O)c2ccc3c(c2)OCO3)O1 | inactive: 1.02
COc1ccc(S(=O)(=O)N(C)C[C@@H]2OCCCC[C@H](C)Oc3ccc(NC(=O)Nc4c(C)noc4C)cc3C(=O)N([C@@H](C)CO)C[C@@H]2C)cc1 | inactive: 0.988
Cc1noc(C)c1S(=O)(=O)N(C)C[C@@H]1Oc2c(NC(=O)C3CCOCC3)cccc2C(=O)N([C@H](C)CO)C[C@@H]1C | inactive: 1.01
C[C@H]1CN([C@@H](C)CO)C(=O)c2cc(-c3ccncc3)cnc2O[C@@H]1CN(C)C(=O)Nc1ccc2c(c1)OCO2 | inactive: 0.976
COc1ccc(CN(C)C[C@@H]2OCCCC[C@H](C)Oc3ccc(NC(=O)NC(C)C)cc3C(=O)N([C@H](C)CO)C[C@H]2C)cc1 | inactive: 0.996
Cc1ccc(S(=O)(=O)N(C)C[C@H]2Oc3c(NS(=O)(=O)c4ccc(F)cc4)cccc3C(=O)N([C@@H](C)CO)C[C@H]2C)cc1 | inactive: 1.03
Cn1cnc(S(=O)(=O)N2C[C@@H](O)COC[C@@H]3O[C@@H](CC(=O)NC4Cc5ccccc5C4)CC[C@H]32)c1 | inactive: 0.983
C[C@@H]1CN([C@@H](C)CO)C(=O)c2cccc(NC(=O)Nc3ccc(C(F)(F)F)cc3)c2O[C@H]1CN(C)C(=O)NC1CCCCC1 | inactive: 0.741
C[C@H](CO)N1C[C@H](C)[C@@H](CN(C)C(=O)NC2CCCCC2)Oc2c(NC(=O)Nc3cccc4ccccc34)cccc2C1=O | inactive: 0.995
COc1ccc([C@@H]([C@H](Cc2ccccc2)OC(C)=O)N2C[C@H]3[C@H]([C@@H](OC(C)=O)c4ccccc4)ON(C)[C@H]3[C@@H]2Cc2ccccc2)cc1 | inactive: 0.99
C[C@H](CO)N1C[C@H](C)[C@@H](CN(C)C(=O)Nc2cccc3ccccc23)Oc2ccc(NC(=O)Cn3cnnn3)cc2C1=O | inactive: 1.01
O=C(CN1CCOCC1)N[C@H]1CC[C@@H](CCNC(=O)C2CCC2)O[C@H]1CO | inactive: 1.04
C[C@H](CO)N1C[C@H](C)[C@@H](CN(C)C)OCCCC[C@H](C)Oc2ccc(NC(=O)Nc3ccc(C(F)(F)F)cc3)cc2C1=O | inactive: 0.994
C[C@@H]1CCCCO[C@@H](CN(C)C(=O)CCCN(C)C)[C@H](C)CN([C@H](C)CO)C(=O)c2cc(N(C)C)ccc2O1 | inactive: 1.01
C[C@@H]1CCCCO[C@@H](CN(C)C(=O)CCC(F)(F)F)[C@@H](C)CN([C@H](C)CO)C(=O)c2cc(NS(=O)(=O)c3ccc(Cl)cc3)ccc2O1 | inactive: 0.925
C[C@@H]1CCCCO[C@H](CN(C)C(=O)Nc2ccc(C(F)(F)F)cc2)[C@H](C)CN([C@@H](C)CO)C(=O)c2cc(NS(=O)(=O)c3ccc(F)cc3)ccc2O1 | inactive: 1.01
Cc1noc(C)c1NC(=O)N(C)C[C@H]1Oc2ccc(NC(=O)Nc3ccc(C(F)(F)F)cc3)cc2C(=O)N([C@@H](C)CO)C[C@@H]1C | inactive: 0.98
Cc1cc(=O)[nH]c(=S)[nH]1 | inactive: 1.19
